The values that follow come from the RNAGym collection of RNA variant scans (doi:10.1093/nar/gkz1192).

Sequences and labels used below:
B1: CPEB3 Ribozyme (parent)
chain: UAACAGGGGGCCACAGCAGAAGCGUUCACGUCGCAGCCCCUGUCAGAUUCUGGUGAAUCUGCGAAUUCUGCUGUAUAUCUC

The source gives no read counts; variants with many changes may rest on few reads.

The series covers variants of B1. Description: self-cleavage, relative activity (ratio to wild type); higher = more cleavage; in vitro, sequencing. The essentials:
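Relative activity was defined as the cleaved/total read fraction for a variant divided by the same fraction for the unmutated ribozyme. CPEB3 self-cleaving ribozyme libraries were made by rounds of error-prone PCR, barcoded, and transcribed in vitro with T7 RNA polymerase for 5 hours at 37°C, and cleavage ran through transcription plus a 15 min DNase I step before EDTA. Illumina sequencing of template-switched reverse transcripts gave the reads, and DNA sequencing mapped the barcodes. Averages come from three batches, using variants with at least 5 reads.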
As to A18G A28G U76C, the self-cleavage was 0.16.

In the case of A18G A20G U25C U31C G61C U66C U74A, the self-cleavage was determined as 0.14.

Regarding A18G A20G A65G U69C, the self-cleavage is 0.22.

With A18C G30A A47C A64G, the self-cleavage amounted to 0.13.

As to A18G A21G U25C U67C, the self-cleavage was 0.18.

Turning to A18G A28G A56C A64G, the self-cleavage was 0.24.

Take A18G A20G U43C: the self-cleavage came out at 0.08.

Turning to A18G A35C U48C U60C A65G U72A, the self-cleavage amounted to 0.15.

As for A18C U26C A35U U48C A65G, the self-cleavage worked out at 0.18.

Take A18G A21U G30A G73A: the self-cleavage is 0.09.

As to A18C U51A U60A G73A U80C, the self-cleavage turned out to be 0.16.

A18G A35G A64G U78C: the self-cleavage stood at 1.12.

On to A18G A28G G30C U49C, for which the self-cleavage worked out at 0.15.

On to A18C C59U U80C, for which the self-cleavage was 0.35.

On to A18G A21G U43C U51A, for which the self-cleavage is 0.25.

For A18G A35G A45U U78C U80A, the self-cleavage stood at 0.66.

Take A18C U31C G63U U67C U78A: the self-cleavage worked out at 0.05.

With A18C G33U U48C U49C C62U, the self-cleavage is 0.12.

As to A18C U31A A45G U51C A64U, the self-cleavage was found to be 0.07.

For the variant A18G A21G C27G C44U A47U, the self-cleavage amounted to 0.02.

Regarding A18C A45G U51A A65G C79U, the self-cleavage came to 0.3.

For the variant A18G A28G U78C, the self-cleavage was 0.25.

Consider A18G A35C U48C, for which the self-cleavage was determined as 0.31.

On to A18G A20U A28G U41A A45G, for which the self-cleavage turned out to be 0.33.

On to A18G A21G G33U U72G U80A, for which the self-cleavage was found to be 0.08.

As to A18G A28G U31C C62U, the self-cleavage was 0.28.

Regarding A18G A28G C29U A45C, the self-cleavage was 0.31.

A18C U54C A57U: the self-cleavage came to 0.62.

With A18G A28G G30A G63C, the self-cleavage stood at 0.21.

A18G A28G A45U C62U: the self-cleavage turned out to be 0.18.

Regarding A18C A21U C27A U41C, the self-cleavage amounted to 0.15.

On to A18G A21U A35C G36U C71G U78G, for which the self-cleavage is 0.05.

As for A18G A20U U58C, the self-cleavage came to 0.06.

Turning to A18G A35G A45G U49C U76C A77U, the self-cleavage was found to be 0.11.

For A18G A21G A35U U51G, the self-cleavage was found to be 0.33.

As to A18C U26C U51C A56G U80C, the self-cleavage came to 0.11.

For the variant A18G A20G U25C U26C U54A A64G, the self-cleavage amounted to 0.41.

Consider A18G A20U A21G U51C U60C G73A, for which the self-cleavage stood at 0.03.

On to A18C A45C A57G U72C, for which the self-cleavage stood at 0.09.

As to A18C A56G A77G, the self-cleavage came to 0.39.

As to A18G A20U C37U U69C U76C, the self-cleavage stood at 0.11.

On to A18G A35G C37U U69C, for which the self-cleavage was determined as 1.31.

For A18C A45U A65G, the self-cleavage stood at 0.21.

Regarding A18C U72A U76C, the self-cleavage is 0.36.

A18C U31A G52A: the self-cleavage was 0.35.

Turning to A18G A35G A65G, the self-cleavage was 0.78.

On to A18G A21G A45U A64G, for which the self-cleavage is 0.49.

With A18G A21G A45G U48A U54A, the self-cleavage came to 0.47.

With A18C A21G U66C, the self-cleavage is 0.59.

With A18C G19A U60C, the self-cleavage amounted to 0.19.

Turning to A18G A28G U49C, the self-cleavage was found to be 0.26.

Take A18G A20G A21G U41A: the self-cleavage came to 0.26.

As to A18G A28U G52C G63U, the self-cleavage came out at 0.37.

As to A18G A28U A45G U49C, the self-cleavage came out at 0.4.

Consider A18G A28U C32A U74A, for which the self-cleavage amounted to 0.19.

Consider A18C U25A U60C, for which the self-cleavage was found to be 0.18.

Consider A18G A35C U48C U72A A75U, for which the self-cleavage came to 0.13.

Consider A18G A20G U26A U43C U49C A57G U74C, for which the self-cleavage was 0.18.

Regarding A18C U67G U69C, the self-cleavage worked out at 0.09.

Consider A18C A21U A45U U51A, for which the self-cleavage turned out to be 0.05.

For A18C C32A G46A, the self-cleavage came to 0.16.

For A18G A28G U31C, the self-cleavage came to 0.3.

As for A18G A21G U25C U43C, the self-cleavage was 0.39.

On to A18G A35G C81U, for which the self-cleavage is 1.37.

Turning to A18G A21U A56U U69C U76C, the self-cleavage worked out at 0.08.

Take A18C U49C A65G U72C: the self-cleavage is 0.07.

Turning to A18G A21G G55A U60A, the self-cleavage came out at 0.07.

On to A18G A20G U41C U58C A65U U72A, for which the self-cleavage is 0.13.

Regarding A18C U26G C39U A56G U60A, the self-cleavage turned out to be 0.15.

For the variant A18G A20G G36U U43C U76C, the self-cleavage amounted to 0.21.

As for A18G A20G U67C, the self-cleavage was 0.39.

A18G A20G U31C U41C U76C: the self-cleavage was 0.02.

For A18G A21G A47G U74C, the self-cleavage was determined as 0.29.

Consider A18G A20G U69C, for which the self-cleavage is 1.04.

In the case of A18G A28U U58A A64U U67C, the self-cleavage was 0.13.

A18G A20U U25C U60C: the self-cleavage turned out to be 0.14.

With A18C A28G A45U U69C, the self-cleavage is 0.24.

As to A18G A21G U41A A64G U72A, the self-cleavage was 0.04.

A18C G19U G33A A65U U78C: the self-cleavage came out at 0.06.

Regarding A18G A28G U69C, the self-cleavage was found to be 0.93.

Turning to A18G A20G A28G, the self-cleavage is 0.37.

Take A18G A20G U51A U72C: the self-cleavage turned out to be 0.15.

On to A18G A20C U80A, for which the self-cleavage came to 0.02.
